One assay addresses T1, FLAG-Star-PAP^WT (human) (UniProt Q9H6E5).
T1 sequence: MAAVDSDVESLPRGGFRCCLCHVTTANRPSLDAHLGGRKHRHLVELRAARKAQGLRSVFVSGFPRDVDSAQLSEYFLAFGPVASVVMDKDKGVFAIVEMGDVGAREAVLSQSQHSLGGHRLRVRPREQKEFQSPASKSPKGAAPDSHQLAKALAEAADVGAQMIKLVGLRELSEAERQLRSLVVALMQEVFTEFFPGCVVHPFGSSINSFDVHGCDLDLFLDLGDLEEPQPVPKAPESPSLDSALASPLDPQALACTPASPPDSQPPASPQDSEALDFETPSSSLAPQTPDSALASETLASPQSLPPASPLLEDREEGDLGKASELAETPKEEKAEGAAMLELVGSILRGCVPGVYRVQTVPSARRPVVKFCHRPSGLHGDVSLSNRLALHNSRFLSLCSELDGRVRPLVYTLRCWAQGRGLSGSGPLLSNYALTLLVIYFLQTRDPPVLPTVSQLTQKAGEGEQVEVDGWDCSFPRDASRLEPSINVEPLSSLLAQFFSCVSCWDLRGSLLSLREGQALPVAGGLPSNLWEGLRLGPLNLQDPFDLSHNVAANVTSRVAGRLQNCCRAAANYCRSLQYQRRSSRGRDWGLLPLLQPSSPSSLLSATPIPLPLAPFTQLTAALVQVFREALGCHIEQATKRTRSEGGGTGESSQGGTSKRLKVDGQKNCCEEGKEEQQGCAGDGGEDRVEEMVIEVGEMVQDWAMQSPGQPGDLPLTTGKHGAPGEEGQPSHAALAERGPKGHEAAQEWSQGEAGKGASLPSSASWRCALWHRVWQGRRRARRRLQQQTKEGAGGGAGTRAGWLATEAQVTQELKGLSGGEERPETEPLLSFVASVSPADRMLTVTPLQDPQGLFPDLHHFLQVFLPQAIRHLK
Kind of assay: co-IP; anti-FLAG IP from lysates of HEK 293 cells with transiently expressed FLAG-Star-PAP forms, blots for associated endogenous proteins; buffer A (100 mM KCl, 5 mM EDTA, 5% NP-40, RNase A); also after tBHQ or DMSO treatment, control siRNA.

Chains of the proteins cited; added tags and fusions are not shown.
UniProt Q99755: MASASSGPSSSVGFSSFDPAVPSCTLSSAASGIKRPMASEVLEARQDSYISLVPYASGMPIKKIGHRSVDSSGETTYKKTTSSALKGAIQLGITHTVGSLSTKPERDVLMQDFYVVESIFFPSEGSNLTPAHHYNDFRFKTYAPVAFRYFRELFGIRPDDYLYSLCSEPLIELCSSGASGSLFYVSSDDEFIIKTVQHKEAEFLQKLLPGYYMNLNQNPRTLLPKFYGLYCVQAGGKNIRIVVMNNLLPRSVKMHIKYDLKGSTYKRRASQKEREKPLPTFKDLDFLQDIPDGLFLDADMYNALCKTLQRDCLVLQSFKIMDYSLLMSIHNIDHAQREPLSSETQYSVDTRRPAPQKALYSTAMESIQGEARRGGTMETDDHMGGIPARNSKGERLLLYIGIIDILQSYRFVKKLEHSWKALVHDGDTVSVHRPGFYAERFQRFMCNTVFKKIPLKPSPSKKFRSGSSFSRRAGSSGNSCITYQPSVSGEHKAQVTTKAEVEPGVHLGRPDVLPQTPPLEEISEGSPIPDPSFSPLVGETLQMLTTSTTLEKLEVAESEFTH

In assay [1] the target is T2, FLAG-Star-PAP^S6A (human) (UniProt Q9H6E5).
T2 sequence: T1 sequence with S6A
The description is as above.

Assay [2] concerns the target T2, FLAG-Star-PAP^S6A (human). Nature of the assay: co-IP; IP from HEK 293 cells with stable transfection of FLAG-Star-PAP^S6A (Supplementary Figure S4E and F).

Numbering of substitutions follows the chain as printed. These are yes or no findings as the source states them, for the method shown. Binding seen in cells or lysates may run through a third protein. Some results given as binding are weak or reduced against the parent protein; the word gives no strength. Sequences can lack the tags named with a protein.

With “PIPKIα (endogenous) (from UniProt Q99755 1-562) (enzyme)”, the binding result is given as “binds” with FLAG-Star-PAP^WT (human), “no binding” in assay [1] and “no binding” in assay [2].

These data come from article PMC4538844.
